In article PMC4336329 (PLoS ONE, 2015):
The campaign covered roughly 310,000 compounds. About 14,000 (4.5%) showed an effect of 50% or more. Effects have a minus sign here. This is one part of the list.

Target: human ether-à-go-go-related gene (hERG) potassium channel (human, UniProt Q12809)
Assay: primary screen, population patch clamp on CHO cells stably expressing hERG
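Also: peak tail current of the secondary pulse compared with the same well before compound.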

human ether-à-go-go-related gene (hERG) potassium channel, sequence (Q12809 whole entry, looked up): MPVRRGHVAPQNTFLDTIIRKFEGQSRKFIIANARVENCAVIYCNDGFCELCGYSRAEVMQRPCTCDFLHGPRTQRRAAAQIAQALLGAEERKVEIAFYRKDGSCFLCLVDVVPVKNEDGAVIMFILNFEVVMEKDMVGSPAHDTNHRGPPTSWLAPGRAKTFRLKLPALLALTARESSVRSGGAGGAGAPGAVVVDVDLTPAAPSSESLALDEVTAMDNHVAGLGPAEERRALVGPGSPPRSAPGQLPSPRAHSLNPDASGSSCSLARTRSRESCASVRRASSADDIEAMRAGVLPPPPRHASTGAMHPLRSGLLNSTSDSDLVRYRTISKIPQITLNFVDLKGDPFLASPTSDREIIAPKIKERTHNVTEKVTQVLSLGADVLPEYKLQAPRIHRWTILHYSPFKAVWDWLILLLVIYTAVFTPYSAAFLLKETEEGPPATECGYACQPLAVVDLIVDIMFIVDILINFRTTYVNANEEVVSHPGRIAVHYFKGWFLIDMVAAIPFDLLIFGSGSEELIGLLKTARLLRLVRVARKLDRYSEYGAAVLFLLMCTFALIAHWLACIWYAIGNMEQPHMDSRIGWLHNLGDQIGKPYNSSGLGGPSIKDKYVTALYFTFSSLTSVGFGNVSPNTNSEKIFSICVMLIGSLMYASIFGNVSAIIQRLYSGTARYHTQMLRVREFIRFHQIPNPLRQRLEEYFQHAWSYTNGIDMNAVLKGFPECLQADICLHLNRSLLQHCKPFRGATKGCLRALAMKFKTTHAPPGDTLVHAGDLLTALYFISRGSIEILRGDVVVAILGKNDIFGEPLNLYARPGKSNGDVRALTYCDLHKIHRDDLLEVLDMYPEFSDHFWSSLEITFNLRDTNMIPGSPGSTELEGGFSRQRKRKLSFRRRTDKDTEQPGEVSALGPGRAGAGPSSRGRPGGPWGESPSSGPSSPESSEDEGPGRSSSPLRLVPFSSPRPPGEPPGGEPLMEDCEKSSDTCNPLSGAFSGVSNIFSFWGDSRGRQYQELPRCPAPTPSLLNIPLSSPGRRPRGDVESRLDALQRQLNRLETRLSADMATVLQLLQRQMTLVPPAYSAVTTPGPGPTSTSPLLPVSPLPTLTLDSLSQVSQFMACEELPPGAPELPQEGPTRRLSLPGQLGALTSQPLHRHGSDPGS

Compound | hERG current change (%, negative = inhibition) at 10uM [%]
O=C(CSc1nc2ccccc2n1Cc1ccc(Cl)cc1)N/N=C/c1ccccc1C(=O)O | 15.3
O=C(NC1CC2CCCC(C1)N2C(=S)Nc1ccc(Cl)cc1)C1CC1 (stereo not drawn) | -0.281
Cc1ccc(-c2noc(CCC(=O)NCc3ccco3)n2)cc1 | 0.976
COc1ccc(NC(=O)COC(=O)c2cc3c(s2)CCC3)cc1 | -26.6
CC(C)OCCCN1CC(=O)N2C(c3cccc([N+](=O)[O-])c3)c3[nH]c4ccccc4c3C[C@H]2C1=O (stereo partly drawn) | -24.5
COc1cc2cc(C(=O)NCCc3ccccc3)[nH]c2cc1OC | 19.2
Cc1cccc(NC(=S)N(CCCN2CCCC2)Cc2cccn2Cc2ccc(Cl)cc2)c1 | -71.8
COc1ccc(NC(=O)CCOc2ccccc2C)cc1S(=O)(=O)N1CCCCC1 | -13.6
CC(C)C(=O)N1C2CCC1CC(O)(c1ccc(F)cc1)C2 (stereo not drawn) | 14.3
Cc1ccc(C)n1-c1nccc(-c2ccco2)n1 | 14.3
OCC[C@H]1C[C@H](O)[C@@H](O)[C@@]2(Cc3ccccc3O2)O1 | 12
CN(c1ccccc1)c1nc(N2CCCC2)nc(-n2ccnc2)n1 | -19.5
O=C1NC2(CCCCCC2)C(=O)N1Cc1ccccc1Br | 16.1
COCCSc1ccccc1C(=O)Nc1cc([N+](=O)[O-])ccc1OC | -28.8
CC1Cc2ccccc2N1CC(=O)Nc1ccc2c(c1)OCCCO2 (stereo not drawn) | -16.1
O=C(NNC(=O)c1cc(-c2ccco2)nc2ccccc12)c1ccccc1 | -3.05
CCOc1ccc(NC(=O)C2CCN(C(=O)N3CCOc4ccccc43)CC2)cc1 | -14.5
Cc1ccc2c(c1)-c1c(ssc1=S)C(C)(C)N2C(=O)c1ccco1 | 14.2
Cc1nn(Cc2ccc(Cl)cc2)c(Cl)c1/C=N/NC(=O)c1cccnc1 | -45.2

Compound | hERG current change (%, negative = inhibition) at 10uM [%]
COC(=O)c1ccc(C(=O)NC2CCCc3c2cnn3-c2cc(F)cc(F)c2)nc1 (stereo not drawn) | -22.9
COc1ccc(NC(=O)N2CCN(C(=O)c3ccco3)CC2)c(OC)c1 | -12
Cn1ccnc1C(O)c1cc(C(C)(C)C)c(O)c(C(C)(C)C)c1 (stereo not drawn) | -37.3
CC(c1nnc(SCn2nnc3ccccc3c2=O)n1-c1ccc(Cl)cc1)N(C)C (stereo not drawn) | -10
CC(=O)Nc1cc(C(F)(F)F)ccc1N1CCOCC1 | -24
O=C(C1COc2ccccc2O1)N1CCN(c2nc3ccccc3s2)CC1 (stereo not drawn) | -27.9
Cc1c(C(=O)N2CCCCCC2)c(S(=O)(=O)Nc2ccccc2F)c(C)n1C | -6.6
Cc1ccccc1C(=O)c1cn[nH]c1-c1ccccc1O | 8.84
CCCN1C2CCCC1CC(NC(=S)Nc1cc(C)ccc1C)C2 (stereo not drawn) | 11.6
Cc1nc(Nc2ccc(Br)cc2Br)c([N+](=O)[O-])c(=O)[nH]1 | -2.87
Cc1ccc(CC(=O)Nc2ccc(OC(F)F)c(Cl)c2)cc1C | -5.51
Cc1cc(C)cc(C(=O)NCCn2cc(SCC(=O)N3CCOCC3)c3ccccc32)c1 | -9.88
CCOc1c(OC(C)=O)ccc(/C=C/c2ccc3cccc(OC(C)=O)c3n2)c1[N+](=O)[O-] | -4.23
CCOCCCN(C)C1CCN(S(=O)(=O)c2csc(C(N)=O)c2)CC1 | 6.89
O=C(CCC(=O)Nc1ccccc1)NNC(=O)COc1ccccc1 | 10.2
COC(=O)c1ccccc1NC(=O)c1ccc(NC(=O)C2CCCO2)cc1 (stereo not drawn) | -16.1
Cc1cccc(N=Nc2cnc(N)s2)c1 | 6.76
CCCc1ccc(-c2cc(C(=O)NC3=NCCS3)c3ccccc3n2)cc1 | -2.06
CC(=O)Nc1ccc(N2C(=O)CSC2c2ccccc2)cc1 (stereo not drawn) | 9.14

Compound | hERG current change (%, negative = inhibition) at 10uM [%]
COc1cccc(NC(=O)C2CCCN2C(=O)Nc2ccccc2F)c1 (stereo not drawn) | -12.2
CC(C)(C)n1nc2c(c1NC(=O)COc1ccccc1F)CS(=O)(=O)C2 | -1.29
Cc1[nH]n(-c2ccccc2)c(=O)c1N=Nc1ccc(C(N)=O)cc1 | 19.5
Cc1coc2cc3oc(=O)c4c(c3cc12)CCC4 | 15.5
CC(C)C[C@@H](CO)N1CCN(Cc2cccnc2)CCC1=O | 3.69
CCc1c(C(=O)NN2C(=O)C3CCCCC3C2=O)csc1C (stereo not drawn) | 6
COc1ccc(OC(C)C(=O)Nc2ccccc2F)cc1 (stereo not drawn) | 13.1
O=C(CCN1C(=O)C2C3C=CC(C3)C2C1=O)NC1CCCc2ccccc21 (stereo not drawn) | 2.8
COc1cc2c(c(O)c1OC)C(=O)C(OC)CCC2 (stereo not drawn) | -3.32
CC(=O)c1c(C)[nH]c(C(=O)COC(=O)COc2ccccc2F)c1C | -3.3
Cc1nn(C2CCS(=O)(=O)C2)c(Cl)c1/C=C/C(=O)OCC(=O)N(C)C (stereo not drawn) | 11.3
Cc1ccc(S(=O)(=O)N2CCC(=O)N(C(COCc3ccccc3)Cc3ccccc3)CC2)cc1 (stereo not drawn) | 14.6
COc1ccccc1N1CCN(C(=O)CN(Cc2ccc(Cl)cc2)S(C)(=O)=O)CC1 | -4.32
Cl.O=C(CNCC(=O)Nc1ccc(F)c(F)c1F)Nc1ccc(F)c(F)c1F | -0.133
COc1ccc(-c2[nH]ncc2CN2CCC(OCc3cccnc3)CC2)c(F)c1 | -37.1
CCc1ccccc1-n1nnnc1-c1cnccc1C(F)(F)F | -0.285
O=C(Nc1ccccc1)Nc1nnc(Cc2ccc(F)cc2)s1 | 20.1
CCc1ccc(OC)c(-c2csc(N)n2)c1 | 0.446
O=C1C=C(NC2=CC3OC(c4ccccc4)OCC3OC2=O)CCC1 (stereo not drawn) | 9.91
